Experimental data as given in the supplement of paper PMC7826260.
This is one part of the list. The data describe in vitro nicking of single-stranded DNA by Rep domains (3 µM enzyme, 1 h, 37 °C); shown is the middle of each 90-letter strand. Numbers give uncut DNA relative to the enzyme-free pool, as log2; uncut sequences lie near 0, cut ones below; no hit call is given. Reads are scaled to the total; values above 0 arise when much of the pool is cut.

system: T1, Rep nickase domain of tomato golden mosaic virus; experiment: uncleaved DNA left, log2 of reads against the no-enzyme library (log2 ratio); higher = less cleavage (more negative = more Rep cleavage of the k-mer); sequences stand for … in CTCGTCCG…ACCGGAGA
T1 sequence (residues 1-124, tag not shown): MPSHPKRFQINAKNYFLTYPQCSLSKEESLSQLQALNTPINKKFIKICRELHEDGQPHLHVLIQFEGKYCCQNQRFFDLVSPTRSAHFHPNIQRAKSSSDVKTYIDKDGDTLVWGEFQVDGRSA
Method: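 A pool of 90-nt single-stranded DNAs with seven random bases just before the constant AC of the nick site (name = the seven bases) was cut by 3 µM recombinant His6-SUMO-tagged Rep nickase domain (300 nM DNA, 50 mM HEPES pH 8.0, 50 mM NaCl, 1 mM MnCl2, 1 h, 37 °C, three replicates). Uncut DNA was amplified and sequenced.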

Sequence | uncleaved DNA left (log2)
CTTCCCG | -0.0765
CGGTAAG | 0.0559
CATTGAC | -0.0252
CCCATGA | 0.0669
GCACCCC | -0.147
ACGTATG | 0.105
GTAGATC | 0.248
AGTGGGA | 0.0793
AGGTTCC | -0.158
CTCCTGC | -0.107
GTGACGA | 0.0141
CTCGACC | -0.0523
AGATGTT | -0.461
TTTGTAA | 0.139
TCGACTG | 0.143
GTGTTAT | 0.024
GCGGCTA | 0.137
GACGTCG | -0.0995
TGTTATA | 0.122
ATCAGAA | 0.0928

Sequence | uncleaved DNA left (log2)
TCCAGAT | -0.0178
AGGTAGT | -0.0253
TGCCTGG | 0.0125
GCGTCTA | 0.163
GCTGGGC | 0.0555
GAGCTAC | -0.0671
GCCAACC | -0.119
TTACTCA | -0.0297
TGCCAGT | -0.154
GATATCT | 0.08
ACAACGA | -0.12
AAGGTCG | -0.00705
TTTCACC | -0.137
GATCTAA | 0.0119
CCTCGAC | -0.0151
GGCAATA | 0.0806
TCTTACA | -0.364
CACCTTA | 0.028
GTCTATT | -0.00728
CAAATCG | 0.0175
